According to PubChem BioAssay AID651820 (National Center for Advancing Translational Sciences (NCATS), 2012):
In all, about 340,000 compounds went through this assay and about 12,000 (3.5%) were called active. The shares of active, inactive and inconclusive entries below differ from those in the screen. The call rests on the fitted dose curve; in most records, active means well fitted inhibition curve with a large enough effect; inconclusive means small, poorly fitted or top-dose-only effect, or another doubt; inactive means no such curve, though single readings can be large or run the other way. Potencies of inconclusive entries are left out as doubtful fits.

Experiment: qHTS Assay for Inhibitors of Hepatitis C Virus (HCV)
Settings: Huh7.5.1 HCVcc-Cre (HCVcc is cell-culture hepatitis C virus) infection, luciferase reporter, 44 h; series mostly up to 41.8 µM
In short: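 A cell-based infection assay in which seeded cells (1,000 per well) receive test compound after 4 h, are inoculated with HCVcc-Cre at approximately 0.5 moi, and are incubated 44 h before luminescence detection.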
Potency means the concentration at half of the fitted maximal effect; tags describe the fitted curve by direction and shape.

SMILES | Potency
O=C(COC(=O)/C=C/c1cccc(Cl)c1)Nc1cccc(S(=O)(=O)NC2=NCCC2)c1 | inactive
COc1ccc(C2/C=C\CN(Cc3ccncc3)CC(=O)N2Cc2ccc(F)cc2)cc1 (stereo not drawn) | inconclusive [inhibitor, single point]
COC(=O)CNc1nc(Cl)nc(NC2CCCCC2)n1 | inactive
Clc1ccc(C2=Nn3c(nnc3-c3n[nH]c4c3CCC4)SC2)cc1Cl | inconclusive [inhibitor, full curve]
CC(C)S(=O)(=O)c1csc(C(=O)NNC(=O)Nc2ccccc2)c1Cl | inactive
COCCCNC(=O)/C=C/c1ccc(Cl)cc1Cl | inactive
CCOC(=O)c1c(-c2ccccc2)csc1NC(=O)CCN1CCOCC1 | inconclusive [inhibitor, single point]
COc1ccc(C)cc1NC(=O)CSc1nnc(-c2ccco2)n1Cc1ccco1 | inconclusive [inhibitor, single point]
CN1CCN(c2ccc(NC(=O)c3cccc(OCc4ccccc4)c3)cc2)CC1 | active: 25.1 µM
Cc1cc2ccccn2c1C(=O)Nc1cccc(Cl)c1 | inconclusive [inhibitor, full curve]
COC(=O)C1=C(c2ccccc2OCc2ccccc2)C[C@@H]2CC[C@H]1N2C(=O)NCc1ccccc1 | inconclusive [inhibitor, partial curve]
O=C(Nc1ccc2c(c1)CCC2)Nc1ccccc1Cl | inconclusive [inhibitor, partial curve]
Cc1ccc2nc(Cl)c(C3CC(c4ccco4)=NN3S(C)(=O)=O)cc2c1 (stereo not drawn) | inactive
CC(C)Oc1ccc(S(=O)(=O)N2CCOCC2)cc1NC(=O)C1CCCCC1 | inactive
CN1C[C@@H]2C[C@@H](C3=Cc4cc(Cl)ccc4OC3)N3CCC[C@@]23C1=O | inconclusive [inhibitor, single point]
CC(C)C1CC(=O)NC(SCC(=O)Nc2ccc(Br)cc2)=C1C#N (stereo not drawn) | inconclusive [inhibitor, single point]
N/C(=N\OC(=O)CCCCCN1C(=O)c2ccccc2C1=O)c1ccccn1 | inactive
Cc1cc(NC(=O)c2ccccc2)n(-c2ccccc2)n1 | inactive
O=C1C2ON(c3ccccc3)C(c3cccnc3)C2C(=O)N1Cc1ccccc1 (stereo not drawn) | inactive
COc1cc(CNCCN2CCOCC2)ccc1OCc1ccc(Cl)cc1 | active: 7.08 µM
CCOC(=O)c1sc(=S)n(-c2ccccc2OC)c1N | inactive
CC(=O)c1ccc(NC(=O)CN2CCN(c3ccccc3)CC2)cc1 | inactive
CCOC(=O)c1csc(NC(=O)C(C)(C)C)n1 | inactive
COC(=O)c1ccccc1CSc1nsc(C)c1C#N | inactive
C/C(=N\NC(=O)c1c(Br)cnn1C)c1ccc(NC(=O)c2ccc(F)cc2)cc1 | inconclusive [inhibitor, partial curve]

SMILES | Potency
CN1CCN(c2ccc(NC(=O)c3ccc(-c4ccccc4F)o3)cc2)CC1 | active: 10 µM
O=C(NCc1ccccn1)c1cccc(NS(=O)(=O)c2cccc(Cl)c2)c1 | inconclusive [inhibitor, single point]
Cc1nc(C)c(C(=O)Nc2ccc(Oc3ccccc3)cc2)o1 | inconclusive [inhibitor, single point]
O=C(CN1CCCC1)Nc1ccc(OCc2ccccc2)cc1 | active: 10 µM
CC1CC(C)CN(c2ncnc3c2cnn3Cc2ccc(Cl)cc2)C1 (stereo not drawn) | inconclusive [inhibitor, partial curve]
CCC(=O)c1ccc(OCC(=O)OCC(=O)N2CCc3ccccc32)cc1 | inconclusive [inhibitor, partial curve]
CCc1cc(=O)oc2c3c(cc(OCC(=O)NCc4ccco4)c12)OC(C)(C)CC3 | active: 1.26 µM
CCCCN(C(=O)CCC(=O)OCC(=O)NCc1ccccc1)c1c(N)n(CCC)c(=O)[nH]c1=O | inactive
O=C(N/N=C/c1ccco1)c1cc(-c2ccccc2)nc2ccccc12 | inactive
COc1ccc(N=Nc2cc(C)ccc2O)cc1 | inconclusive [inhibitor, partial curve]
CN(CC(=O)NCC(=O)Nc1ccc(F)cc1)C1CCS(=O)(=O)C1 (stereo not drawn) | inactive
Cc1ccc(NC(=O)c2oc3ccc(Br)cc3c2C)cc1S(=O)(=O)N1CCOCC1 | inactive
CC(C)OCCCn1c(=O)c2ccccc2n2c(CCC(=O)N3CCN(c4ccccn4)CC3)nnc12 | inconclusive [inhibitor, single point]
COc1ccc2c(=O)c(C(=O)NCCc3ccc(OC)c(OC)c3)c[nH]c2c1 | inactive
O=C(CSc1ccc(-c2ccco2)nn1)Nc1ccc(F)cc1 | inconclusive [inhibitor, single point]
CN(C)CCN(CC1CCCN(Cc2ccccc2F)C1)C(=O)c1ccc(F)cc1 (stereo not drawn) | inconclusive [inhibitor, single point]
O=C(NCC(c1ccco1)N1CCN(c2ccc(F)cc2)CC1)OCc1ccccc1 (stereo not drawn) | inconclusive [inhibitor, single point]
COc1cc(C2Nc3ccc4ncccc4c3C3=C2C(=O)CCC3)cc(OC)c1O (stereo not drawn) | inconclusive [inhibitor, partial curve]
CCC(=NNC(=O)c1ccc2c(c1)nc(C)n2CC)c1cc(F)ccc1O | inconclusive [inhibitor, partial curve]
CCC(CC)C(=O)NCc1ccc(OC)cc1 | inactive
C/C(CC(=O)N1CCN(C=O)CC1)=N\NC(=O)c1ccc(Cl)cc1 | inactive
C#CCOCCOCCOCCNc1nc(N2CCN(C(=O)CCCCCCCCCCNC(=O)[C@H]([C@@H](C)CC)n3cc(CCCCCN)nn3)CC2)nc(N2CCN(C(=O)CCCCCCCCCCNC(=O)[C@H]([C@@H](C)CC)n3cc(CCCCN=C(N)N)nn3)CC2)n1 | inconclusive [inhibitor, single point]
COc1ccccc1N(CC(=O)NC1CC2CCC1C2)S(=O)(=O)c1ccc(C)cc1 (stereo not drawn) | inconclusive [inhibitor, single point]
CCOc1ccccc1N1CCN(C(=O)C2c3ccccc3Oc3ccccc32)CC1 | inconclusive [inhibitor, partial curve]
CC(C)(C)NC(=O)c1ccc(Sc2ccccc2)c([N+](=O)[O-])c1 | inconclusive [inhibitor, partial curve]

SMILES | Potency
Cc1nn(C(=O)c2c([N+](=O)[O-])cnn2C)c(C)c1Cl | inactive
Clc1ccc(C2[C@H]3CN(CC4CCCCC4)[C@H](c4ccccc4)C34CC2(c2ccccc2)C4)cn1 (stereo partly drawn) | inactive
NS(=O)(=O)c1ccc(CNC(=O)c2cc(-c3cccnc3)nc3ccc(Cl)cc23)cc1 | inconclusive [inhibitor, partial curve]
Cn1cccc/c1=N\c1cccc[n+]1C | active: 3.55 µM
Cc1ccc(S(=O)(=O)CCC(=O)OCC(=O)NCC(=O)Nc2c(C)cc(C)cc2C)cc1 | inactive
CN1CCN(C(=O)CCCN2C(=O)/C(=C/c3ccc(Cl)cc3)SC2=S)CC1 | inconclusive [inhibitor, single point]
O=c1c2c3c(sc2nc2n1CCC2)CCC3 | inactive
CCN1CCc2c(OCc3ccccc3)cccc2C1=O | inconclusive [inhibitor, partial curve]
COc1ccc(/C=C/C(=O)c2c(O)ccc3c(C)cc(=O)oc23)cc1 | inconclusive [inhibitor, single point]
O=C(Cn1cc([N+](=O)[O-])cn1)NCCc1c[nH]c2ccccc12 | inactive
Cn1c(=O)c2c(ncn2CCOc2ccc(Br)cc2)n(C)c1=O | active: 10 µM
COc1ccc(/C=C2/C(=O)N(c3nc4ccccc4s3)N=C2CSc2ccc(Cl)cc2)cc1 | inactive
COC(=O)c1c(-c2ccc(C)cc2)csc1NC(=O)Cc1ccc(OC)c(OC)c1 | inconclusive [inhibitor, partial curve]
O=C(Nc1ccc2nc(SCc3ccc(Cl)cc3)sc2c1)c1ccccc1C(=O)N1CCOCC1 | inconclusive [inhibitor, partial curve]
CCOc1ccc(S(=O)(=O)Nc2ccccc2C(=O)N2CCOCC2)cc1 | inactive
CC(C)Oc1ccc(S(=O)(=O)N2CCCCC2)cc1NC(=O)CC1OC(=O)c2ccccc21 (stereo not drawn) | inconclusive [inhibitor, partial curve, poor fit]
COCC(=O)Nc1cc(C)c2c(=O)oc3ccccc3c2n1 | inconclusive [inhibitor, single point]
Cc1c(CCOC(=O)c2ccc(Cl)cc2Cl)sc[n+]1CC(=O)c1ccccc1 | active: 12.6 µM
COc1ccc(C2CC(c3cccc(F)c3)=NN2c2ccc(S(N)(=O)=O)cc2)cc1 (stereo not drawn) | inconclusive [inhibitor, partial curve]
O=C(CC(Cc1ccccc1)C(=O)O)Nc1ccc(Cl)c(Cl)c1 (stereo not drawn) | inconclusive [inhibitor, single point]
CCOc1ccccc1-n1c(SC(C)C(=O)NCC2CCCO2)nc2ccccc2c1=O (stereo not drawn) | inactive
CC(=O)c1ccc(NC(=O)c2ccc(S(=O)(=O)c3ccccc3)cc2)cc1 | inconclusive [inhibitor, partial curve, poor fit]
Cc1ccc(C)c(OCC(=O)N2CCN(Cc3ccc4c(c3)OCO4)CC2)c1 | inconclusive [inhibitor, full curve, poor fit]
